The text below walks through data of publication PMC12040169 (PLOS Biology, 2025).

The list shows a part of the results.

The subject of this experiment is T1, C. trachomatis L2/434/Bu expressing GFP (CTL2-GFP).
T1 construct: L2/434/Bu GFP intracellular growth in HeLa cells
More on the design: species or system HeLa; C. trachomatis total inclusion area by high-content imaging, normalised to DMSO. To be noted: total inclusion area; 28.5 h, 10 µM; inhibitor. A digest of the protocol:
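Post-fluorescence-read fixation, DNA staining with Hoechst and high-content imaging; GFP inclusion area and number per well, and nuclei counts, used as proxies for bacterial growth and host viability.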
Regarding `c1cn(CC2(Cn3ccnc3)COC2)cn1` [CBK021839], the “% of control remaining” value amounted to 4.192.

On to `O=C(O)c1ccc(C(=O)NC2CCN(CC(F)(F)F)C2=O)s1` (centres unmarked) [CBK305524], for which the “% of control remaining” value is 100.082. On to `O=C1c2ccccc2C(=O)N1CCCc1nc2c3c4c(sc3ncn2n1)CCCCC4` [CBK268540], for which the “% of control remaining” value is reported as 124.468. Next, `O=P(O)(CCc1ccncc1)CN1CCCCC1` [CBK262323]: 89.8842; `NC(=O)CN1CCC2(CCN(C(=O)c3cc(F)c(F)cc3F)C2)C1` (centres unmarked) [CBK132140]: 99.5996; `CCOC(=O)CN(C)Cc1ccccc1Br` [CBK261891]: 95.7031.

As for `CCCCc1ccc(S(=O)(=O)n2ccc3c(N4CCNCC4)cccc32)cc1` [CBK003744C], the “% of control remaining” value is 43.0065.

Turning to `CCC1CCCCN1C(=O)c1ccc(NC2CC2)nc1` (centres unmarked) [CBK304815], the “% of control remaining” value is recorded as 73.4345. Take `Cc1ccc(-n2ncc3c(NCCc4ccc(S(N)(=O)=O)cc4)ncnc32)c(C)c1` [CBK265676]: the “% of control remaining” value came out at 106.434.

As to `CN1CCN(c2ccc(NC(=O)c3cc([N+](=O)[O-])ccc3N3CCOCC3)cc2)CC1` [CBK269425], the “% of control remaining” value was 106.8. Next, `COC(=O)c1c(NC(=S)NCCn2cc(Br)cn2)sc2c1CCC2` [CBK266905]: 120.145.

`O=C(NCCc1cccs1)Nc1ccc(F)c(F)c1F` [CBK044543]: the “% of control remaining” value was determined as 90.6784.

`Cc1nn(C)c(C(=O)NNC(=S)Nc2ccc(S(N)(=O)=O)cc2)c1Br` [CBK266963]: the “% of control remaining” value stood at 127.01. Then `Fc1cccc(C2NC(=S)NC3=C2N2CCC3CC2)c1` (centres unmarked) [CBK288503], with 86.8744; and `Cc1ccc(N(CC(=O)NCC2CCCO2)S(C)(=O)=O)cc1` (centres unmarked) [CBK058709], with 73.3145. Next, `CCCCC(c1cccnc1)N(C)C(=O)c1cc(CC)[nH]c(=O)c1` (centres unmarked) [CBK307216]: 100.156; `Cc1cc2ncn(CC(=O)NC3Cc4ccccc4C3)c2cc1C` [CBK200261]: 0; `CC(=O)N1CCc2nc(CC3CC3)nc(NCCn3ccnn3)c2CC1` [CBK306933]: 10.1306. Then `Nc1ncnc(NCCCN2CCOCC2)c1[N+](=O)[O-]` [CBK267267], with 98.7421; and `Cc1ccc(NS(=O)(=O)c2ccc(OCC(=O)Nc3ccccc3C(F)(F)F)cc2)cc1` [CBK269120], with 117.027; and `NC(=O)C1CCN(C2CC(=O)NC2=O)CC1` (centres unmarked) [CBK263290], with 102.846. Consider `Cc1nc2nc(N)nn2c(C)c1CCC(=O)NCCc1ccccc1` [CBK304989], for which the “% of control remaining” value is recorded as 59.0833. Next, `O=C(Nc1ccccc1)c1ccc(-c2ccccc2)cc1` [CBK261346]: 98.9579.
